# In publication PMC3605390, “Characterisation of ATP-Dependent Mur Ligases Involved in the Biogenesis of Cell Wall Peptidoglycan in Mycobacterium tuberculosis” (PLoS ONE, 2013):
# No constants are given. Whether binding was seen depends on the method and setting.
# B1: purified recombinant M. tuberculosis MurF synthetase (enzyme, UniProt P9WJL1 1-510)
# chain: MIELTVAQIAEIVGGAVADISPQDAAHRRVTGTVEFDSRAIGPGGLFLALPGARADGHDHAASAVAAGAAVVLAARPVGVPAIVVPPVAAPNVLAGVLEHDNDGSGAAVLAALAKLATAVAAQLVAGGLTIIGITGSSGKTSTKDLMAAVLAPLGEVVAPPGSFNNELGHPWTVLRATRRTDYLILEMAARHHGNIAALAEIAPPSIGVVLNVGTAHLGEFGSREVIAQTKAELPQAVPHSGAVVLNADDPAVAAMAKLTAARVVRVSRDNTGDVWAGPVSLDELARPRFTLHAHDAQAEVRLGVCGDHQVTNALCAAAVALECGASVEQVAAALTAAPPVSRHRMQVTTRGDGVTVIDDAYNANPDSMRAGLQALAWIAHQPEATRRSWAVLGEMAELGEDAIAEHDRIGRLAVRLDVSRLVVVGTGRSISAMHHGAVLEGAWGSGEATADHGADRTAVNVADGDAALALLRAELRPGDVVLVKASNAAGLGAVADALVADDTCGSVRP
# Molecular target: purified recombinant M. tuberculosis MurF synthetase (Mycobacterium tuberculosis H37Rv) (UniProt P9WJL1)
# Experiment: SEC; both purified
binder,measurement,value
B1,binding,no binding
